The campaign covered roughly 110,000 compounds. About 40 (0.04%) were called active. The inconclusive results got no clear call from the source; some entries with a clear call stand among them for comparison. Calls come from the whole dose curve; as a rule, active = well fitted curve in the direction sought with a large enough effect in the signal ratio (not every such curve was filed as active); inconclusive = small, poorly fitted or top-dose-only effect, or a change in a side signal; inactive = flat fitted curve, though single readings scatter; the % refers to the signal ratio. Potencies beside an inconclusive call are fits to weak or partial responses and may not hold up.
test: IkB Signaling; conditions: ABC-DLBCL IkBa-CBG/CBR dual luciferase ratio (green luciferase fused to IkBa over red control in OCI-Ly3 lymphoma cells), 4 h; IkBa stabilization activation: at 57.1 µM (top of the series), scaled: untreated 0%, proteasome inhibitor 100% unless noted;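 for IkBa stabilization activation: 0% = basal untreated cells and 100% = reference inhibitor full response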
Summary of the method: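 Luminescence ratio of IκBα-fused green versus native red beetle luciferase in OCI-Ly3 cells, 4 h post-doxycycline with compound; red signal alone, scaled from basal (0%) to zero light (-100%), flagged nonspecific or cytotoxic effects.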
Potency is the fitted concentration of half-maximal effect.

Structure (SMILES) | IkBa stabilization activation | Potency
Cc1cc(NC(=O)CN2C(=O)c3cccnc3Sc3ccccc32)ccc1Br | inconclusive: 9.96% [signal inhibitor] | 
CCc1ccccc1NC(=O)Nc1nnc(N(CC)c2ccccc2)s1 | inconclusive: 1.8% [signal inhibitor] | 
CCN1CCN(c2ncc3c(n2)CC(c2ccccc2O)CC3=O)CC1 (stereo unspecified) | inactive | 
Cc1ccc(CNC(=O)c2cc(-c3ccc(Cl)cc3)on2)cc1 | inactive | 
CC(=O)n1cc(C2C(=O)CCCC2=O)c2ccccc21 |  | inconclusive: 15.8 µM [signal inhibitor, partial curve]
Cc1ccc(S(=O)(=O)NCCC(=O)OCn2nnc3ccccc3c2=O)cc1 | inactive | 
Cc1ccc2oc(=O)c(S(=O)(=O)c3ccc(C(C)(C)C)cc3)cc2c1 | inconclusive: 1.03% [signal inhibitor] | 
CN(C)c1ccc(CNC(=O)CN2CCSc3ccc(S(=O)(=O)N(C)C)cc32)cc1 | inconclusive: 0.786% [signal inhibitor] | 
CCCCCn1c(=O)[nH]c2cc(C(=O)N3CCN(c4cccc(C(F)(F)F)c4)CC3)ccc2c1=O | inconclusive: 1.61% [signal inhibitor] | 
O=C(O)CCC(=O)N1CCC[C@H]1C(=O)O | inactive | 
O=C(Nc1ccc(Br)cc1)C1CCCN1S(=O)(=O)c1ccc(F)cc1 (stereo unspecified) | inconclusive: 1.47% [signal inhibitor] | 
COc1ccc(CNC(=O)c2oc3c(c2C)-c2nn(Cc4ccc(Cl)cc4)cc2CC3)cc1 | inconclusive: -1.45% [signal inhibitor] | 
Cc1nnc(Sc2nc3c(c(=O)n(C)c(=O)n3C)n2Cc2ccc(Cl)cc2)s1 | inconclusive: 9.56% [signal activator] | 
CCN(CC)S(=O)(=O)c1ccc2nc(NC(=O)c3cncc(Br)c3)sc2c1 | inconclusive: -2.33% [signal inhibitor] | 
Cc1ccc(OCc2nc(-c3ccc(C(=O)NCc4ccc(OC(C)C)cc4)cc3)oc2C)cc1 | inconclusive: -0.405% [signal inhibitor] | 
Cc1ccc(C(=O)c2cn(Cc3ccc(Cl)cc3)c3nc(C)ccc3c2=O)cc1 | inconclusive: 2.29% [signal inhibitor] | 
COc1ccc(Nc2oc(-c3ccc(COc4ccccc4C)o3)nc2C#N)cc1 | inconclusive: 0.658% [signal inhibitor] | 
Cc1cc(C)c2cc(CN(Cc3nnnn3C3CCCCC3)CC3CCCO3)c(=O)[nH]c2c1 (stereo unspecified) | inconclusive: 2.48% [signal inhibitor] | 
COc1ccc(Cl)cc1NC(=O)C1CSC(c2ccncc2)=N1 (stereo unspecified) | inactive | 
Cc1ccc(C(C)C)c(OCCSc2nc3ccccc3n2CC(O)CO)c1 (stereo unspecified) |  | inconclusive: 20 µM [signal inhibitor]
O=C(Nc1cnn(Cc2ccc(F)cc2)c1)c1cc(-c2ccc(Br)cc2)on1 | inactive | 
CC(C)Cn1c(-c2ccc(S(=O)(=O)N3CCOCC3)cc2)csc1=Nc1cc(Cl)ccc1Cl | inconclusive: 5.76% [signal inhibitor] | 
COc1cccc(NC(=O)/C(C#N)=C/c2c(C)n(Cc3ccc(Cl)cc3)c3ccccc23)c1 |  | inconclusive: 2.51 µM [signal inhibitor, partial curve]
C[C@@]12C(=O)OC(=O)[C@]1(C)[C@H]1CC[C@@H]2O1 |  | inconclusive: 12.6 µM [rising, partial curve]

Structure (SMILES) | IkBa stabilization activation | Potency
CC(C)Nc1nnc(SCC(=O)Nc2ccc(F)cc2)s1 | inconclusive: 2.68% [signal inhibitor] | 
O=C(NCc1ccco1)c1ccc2c(c1)N(Cc1ccc(Cl)cc1)C(=O)c1ccccc1S2 | inconclusive: 1.14% [signal inhibitor] | 
Cc1c(N=Cc2ccc(Cl)o2)c(=O)n(-c2ccccc2)n1C | inactive | 
CC(C)=C1C2C=CC1C1C(=O)N(c3ccc4c(c3)OCO4)C(=O)C21 (stereo unspecified) | inactive | 
O=c1cc(-c2ccncc2)oc2ccccc12 | inconclusive: -5.04% [signal inhibitor] | 
COc1cc(OC)c(NS(=O)(=O)c2c(C(=O)N3CCC(C)CC3)c(C)n(C)c2C)cc1Cl | inactive | 
Cc1nnc(NC(=O)CSCc2cc(=O)c3ccccc3[nH]2)s1 | inactive | 
CCOC(=O)c1c(N2C(=O)C3C4C=CC(O4)C3C2=O)sc2c1CCCC2 (stereo unspecified) | inconclusive: 0.436% [signal inhibitor] | 
CCOC(=O)Cc1csc(NC(=O)CSc2ncnc3c2cnn3-c2ccccc2Cl)n1 | inconclusive: 3.97% [signal inhibitor] | 
COc1ccc(CCNC(=O)CCn2c(=O)c3ccccc3n(Cc3ccccc3)c2=O)cc1OC | inactive | 
COc1ccc(-c2nnc(SCc3ccccc3F)o2)cc1OC | inactive | 
CN(C)CCNc1oc(-c2ccc(COc3ccc(Cl)cc3)o2)nc1C#N | inconclusive: 1.97% [signal inhibitor] | 
COc1ccc(N2CCN(Cc3nnc(-c4cccc(Br)c4)o3)CC2)cc1 | inconclusive: 18.7% [signal inhibitor] | 
COc1ccc(CCNC(=O)C(C)n2c(=O)cc(C(F)(F)F)c3c(C)nn(C)c32)cc1OC (stereo unspecified) | inconclusive: -0.652% [signal inhibitor] | 
Cc1cc(C)cc(Oc2nc3c(C)cccn3c(=O)c2/C=C(\C#N)c2nc3ccccc3s2)c1 |  | inconclusive: 31.6 µM [signal inhibitor, single point]
CCc1ccc(C(=O)c2cn(Cc3ccc(F)cc3)c3cc(OC)c(OC)cc3c2=O)cc1 | inconclusive: 1.33% [signal inhibitor] | 
Cc1ccc(Cl)cc1-n1ncc2c(N3CCN(Cc4ccccc4)CC3)ncnc21 | inconclusive: -6.31% [signal inhibitor] | 
CCOCCCN1C(=O)c2ccccc2CC1(C)C(=O)NC1CCCCC1 (stereo unspecified) | inactive | 
CCOc1ccc(-c2nnc3ccc(SCc4ccc(C(=O)OC)o4)nn23)cc1 | inactive | 
COc1ccc(NC(=O)CSc2nc3c(oc4ccccc43)c(=O)n2Cc2ccco2)cc1Cl |  | inconclusive: 20 µM [rising, partial curve]
COc1ccc(CNC(=O)CN2C(=O)CSc3ccc(S(=O)(=O)N4CCC(C)CC4)cc32)cc1 | inconclusive: -0.718% [signal inhibitor] | 
Cc1ccc(CCNc2ncnc3onc(-c4ccc(Cl)cc4)c23)cc1 | inconclusive: -0.926% [signal inhibitor] | 
CC1CCCCC1NC(=O)Cn1c(CN2CCCCC2)nc2ccccc2c1=O (stereo unspecified) | inactive | 
COc1cc(S(=O)(=O)NCCc2c(C)[nH]c3ccccc23)c(C)cc1C | inconclusive: 8.9% [signal inhibitor] | 

Structure (SMILES) | IkBa stabilization activation | Potency
COc1ccc(N(Cc2cc3cccc(C)c3[nH]c2=O)C(=O)c2cccc(Cl)c2)cc1 | inactive | 
COc1ccccc1CNc1ncncc1-c1ccccc1CN(C)C | inactive: -0.101% [at 11.4 µM, scaled: untreated 0%, proteasome inhibitor 100%] | 
CN(C)S(=O)(=O)c1ccc(C(=O)NCCSc2c(-c3ccccc3)[nH]c3ccccc23)cc1 | inconclusive: 7.59% [signal inhibitor] | 
Fc1cccc(-c2nnn3c2nc(NC2CCCCC2)c2ccccc23)c1 |  | inconclusive: 0.398 µM [signal inhibitor, full curve]
COc1ccc(NC(=O)C2=C(C)Nc3ncnn3C2c2cccn2C)cc1 (stereo unspecified) | inconclusive: -0.0637% [signal inhibitor] | 
COc1cc(C(=O)OCC(=O)c2cc(C)n(C)c2C)cc(OC)c1OC | inactive | 
Cc1cccc(-n2c(CNC(=O)c3cccc(F)c3)nnc2SCC(=O)Nc2ccccc2F)c1 | inconclusive: 2.01% [signal inhibitor] | 
CC(C)(C)C1CCc2oc3ccc(NS(=O)(=O)c4ccc(C(=O)O)cc4)cc3c2C1 (stereo unspecified) | inconclusive: -3.84% [signal inhibitor] | 
COc1ccc(CCNc2ncnc3c2cnn3-c2cc(Cl)ccc2C)cc1 | inconclusive: -1.71% [signal inhibitor] | 
NC1(C(=O)O)CCC1 | inactive | 
CC1CCN(S(=O)(=O)c2ccc3c(ccc(=O)n3CC(=O)Nc3cccc(F)c3)c2)CC1 | inactive | 
Cc1cccc(-n2c(SCC(=O)Nc3nnc(C)s3)nnc2-c2ccoc2C)c1 | inactive | 
CCN(Cc1ccccc1)S(=O)(=O)c1ccc(C(=O)Nc2nnc(-c3ccccc3OC)o2)cc1 | inactive | 
Cc1ccc(NC(=O)c2cc(S(=O)(=O)NCCc3ccc(Cl)cc3)ccc2F)cc1 | inconclusive: 8.01% [signal inhibitor] | 
CC1CCCCN1C(=O)c1cc(-c2ccc(Br)cc2)on1 (stereo unspecified) | inconclusive: 9.78% [signal inhibitor] | 
c1c2c(cc3sc(N4CCOCC4)nc13)OCO2 | inactive | 
CCOC(=O)C1CCN(c2nc3c(S(=O)(=O)c4ccc(C)c(C)c4)nnn3c3ccc(Cl)cc23)CC1 | inactive | 
CCOC(=O)CSc1nc2c(sc3ccccc32)c(=O)n1CCO | inconclusive: 1.53% [signal inhibitor] | 
COc1cc(OC)cc(C(=O)Nc2ncc3c(n2)CC(C)CC3=O)c1 (stereo unspecified) |  | inconclusive: 20 µM [signal inhibitor, partial curve]
Cc1nn(CC(=O)N2CCN(c3ccc(Cl)cc3)CC2)c(=O)c2cccn12 | inconclusive: 0.0514% [signal inhibitor] | 
Cc1ccc2c(=O)cc(C(=O)Nc3ccc(S(=O)(=O)Nc4ncccn4)cc3)oc2c1C | inconclusive: 2.12% [signal inhibitor] | 
Cc1cc(C)cc(NC(=O)Cn2cc(C(=O)C3CCCCC3)c3ccccc32)c1 | inactive | 
COc1ccc(NCc2cccn2-c2nnc(N3CCCCC3)s2)cc1OC | inconclusive: 0.913% [signal inhibitor] | 
